# About 5,800 (2.1%) of roughly 270,000 compounds were called active. This list was built around the results that the source calls inconclusive (neither active nor inactive); the mix of calls is not that of the screen. Calls follow the shape of the dose curve; as a rule, active = well fitted inhibition curve with a large enough effect; inconclusive = small, poorly fitted or top-dose-only effect; inactive = flat fitted curve, though single readings scatter. Where the call is inconclusive, the potency comes from a doubtful curve fit.
# Target: Microtubule-associated protein tau (Homo sapiens) (UniProt P10636)
# UniProt P10636, sequence (P10636 whole entry, looked up): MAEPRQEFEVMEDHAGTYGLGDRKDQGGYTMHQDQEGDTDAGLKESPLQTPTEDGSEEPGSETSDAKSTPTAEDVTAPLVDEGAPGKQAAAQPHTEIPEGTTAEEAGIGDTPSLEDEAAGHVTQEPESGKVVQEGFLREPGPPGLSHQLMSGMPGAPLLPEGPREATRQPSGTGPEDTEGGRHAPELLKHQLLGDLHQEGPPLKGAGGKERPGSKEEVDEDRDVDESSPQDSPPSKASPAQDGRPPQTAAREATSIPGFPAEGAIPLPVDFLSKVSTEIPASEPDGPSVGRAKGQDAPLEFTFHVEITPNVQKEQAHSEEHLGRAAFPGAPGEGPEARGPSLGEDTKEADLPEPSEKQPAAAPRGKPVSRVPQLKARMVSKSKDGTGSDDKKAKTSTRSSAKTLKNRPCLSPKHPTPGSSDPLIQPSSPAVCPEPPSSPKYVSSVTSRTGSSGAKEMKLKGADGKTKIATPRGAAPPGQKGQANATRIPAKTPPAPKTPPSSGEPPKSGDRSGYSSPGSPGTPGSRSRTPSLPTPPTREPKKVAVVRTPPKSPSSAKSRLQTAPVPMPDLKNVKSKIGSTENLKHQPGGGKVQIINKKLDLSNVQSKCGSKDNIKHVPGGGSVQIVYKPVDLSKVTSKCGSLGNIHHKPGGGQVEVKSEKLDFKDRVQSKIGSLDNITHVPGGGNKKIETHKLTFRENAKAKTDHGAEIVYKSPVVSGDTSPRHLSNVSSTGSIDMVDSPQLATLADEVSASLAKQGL
# Assay: qHTS for Inhibitors of Tau Fibril Formation, Thioflavin T Binding; also: nearly all actives have a fitted effect of over 55% in size
# Settings: recombinant tau K18 P301L (four-repeat tau fragment), heparin-induced fibrillization, ThT fluorescence; series mostly up to 57.4 µM
# Outline: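 K18 P301L tau (15 uM + 0.24 uM Alexa 594-tagged), heparin 20 uM, NaOAc pH 7, 6 h 37 C; ThT 30 uM, 1 h RT, ex 450/em 510 nm.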
# Potency is read from the fitted curve at half-maximal effect; tags tell the direction and shape of the fitted curve.
row,SMILES,Potency
1,Cc1cc(N=Nc2ccc(C)c(N=Nc3cc(C)c(N)cc3N)c2)c(N)cc1N,active: 3.98 µM
2,N#C/C(=C\c1cccc([N+](=O)[O-])c1)C(=O)NCc1cccnc1,inactive
3,O=C(Nc1ccccc1C(F)(F)F)N1CCN(c2ccc3nnc(-c4ccc(F)cc4)n3n2)CC1,"inconclusive: 39.8 µM [inhibitor, single point]"
4,COc1ccc(NC(=O)c2cccs2)c([N+](=O)[O-])c1,"inconclusive: 20 µM [inhibitor, partial curve]"
5,COc1ccccc1N1CCN(C(=O)c2ccc(N3CCCC3=O)cc2)CC1,"inconclusive: 28.2 µM [inhibitor, partial curve, poor fit]"
6,CN(C)S(=O)(=O)c1cccc(-c2nn(-c3ccccc3)cc2/C=C2\SC(=S)NC2=O)c1,"inconclusive: 31.6 µM [inhibitor, partial curve]"
7,COc1cc(C2CC(=O)Oc3cc(C)cc(C)c32)cc(OC)c1OC (centres undefined),"inconclusive: 44.7 µM [inhibitor, single point]"
8,O=C1CC(NNc2ccccc2)C(=O)N1c1ccccc1 (centres undefined),"inconclusive: 25.1 µM [inhibitor, single point]"
9,Cc1ccc(C2C3=C(CC(C)(C)CC3=O)NC3=C2C(=O)CC(C)(C)C3)o1,inactive
10,O=C(Nc1ccc2[nH]c(=S)sc2c1)Nc1ccccc1F,active: 11.2 µM
11,NC(=O)SCC(=O)Nc1ccc(Cl)c(Cl)c1,"inconclusive: 28.2 µM [inhibitor, partial curve]"
12,Cc1ccccc1-c1noc(-c2ccccc2OCC(=O)Nc2ccccc2[N+](=O)[O-])n1,inactive
13,CC(C)C(=O)NNC(=O)CSc1nnnn1C(C)C,inactive
14,O=C(Nc1nnc(S(=O)(=O)N2CCOCC2)s1)c1ccc(F)cc1,"inconclusive: 0.794 µM [inhibitor, full curve]"
15,N#Cc1cccc(NC(=O)c2ccc3c(c2)N(Cc2cccc(Cl)c2)C(=O)c2ccccc2S3(=O)=O)c1,inactive
16,O=C(c1ccc(COc2ccccc2Cl)o1)N1N=C(C(F)F)CC1(O)C(F)F (centres undefined),"inconclusive: 39.8 µM [inhibitor, single point]"
17,CC(C)(C)C(=O)NNC(=O)c1cnccn1,inactive
18,CC(C)(C)c1ccc(-c2nnc(SCCC#N)n2C2CCCC2)cc1,inactive
19,COc1ccc(S(=O)(=O)N2CCN(CC(=O)Nc3ccc(C)c(F)c3)CC2)cc1,inactive
20,Cc1ccc(-c2ccc(/C=N\NC(=O)c3cc4c(ccc5ccccc54)o3)o2)cc1[N+](=O)[O-],"inconclusive: 2 µM [inhibitor, full curve]"
21,COc1cc(C/C=C\c2ccccc2)c(OC)cc1O,active: 20 µM
22,O=C(/C(=C(\[O-])c1ccccc1)[n+]1ccc2ccccc2c1)c1ccc(Cl)cc1,"inconclusive: 14.1 µM [inhibitor, partial curve, poor fit]"
23,CCCc1cc(C(=O)Cc2ccc(C(=O)OCC)o2)c(O)cc1O,"inconclusive: 22.4 µM [inhibitor, partial curve, poor fit]"

row,SMILES,Potency
1,COC(=O)c1ccc(OCC2c3cc(OC)c(OC)cc3CCN2C(=O)c2ccccc2F)cc1 (centres undefined),inactive
2,CSc1nsc(SCC(=O)Nc2nc3ccccc3s2)n1,"inconclusive: 0.631 µM [inhibitor, full curve]"
3,CC(=O)c1ccc(N2CCN(C(=S)Nc3cccc(F)c3)CC2)cc1,"inconclusive: 11.2 µM [inhibitor, partial curve]"
4,COc1ccc(C(=O)N/N=c2\oc3ccccc3cc2C(=O)NCc2ccccc2)cc1,"inconclusive: 8.91 µM [inhibitor, partial curve]"
5,Cc1ccc(C)c(N2CCN(C(=O)C(C)n3c(C)c4cnn(-c5ccccc5)c(=O)c4c3C)CC2)c1 (centres undefined),inactive
6,Cc1nn(C)c(C)c1Nc1ccc(N2C(=O)C3CC=CCC3C2=O)cc1[N+](=O)[O-] (centres undefined),"inconclusive: 22.4 µM [inhibitor, partial curve]"
7,O=C(Nc1cccc(NC(=O)c2ccco2)c1)c1ccc2c(c1)OCO2,"inconclusive: 15.8 µM [inhibitor, partial curve]"
8,CN(C)/N=C/c1ccc(/C=N/NC(N)=S)o1,"inconclusive: 31.6 µM [inhibitor, single point]"
9,COc1ccc(CCCO[C@@H](Cn2ccnc2)c2ccc(OC)cc2)cc1,"inconclusive: 35.5 µM [inhibitor, single point]"
10,O=C(NCCc1nc2ccccc2[nH]1)c1cccc(Br)c1,inactive
11,Nc1c(C(=O)OCC(=O)Nc2ccc(Cl)cc2[N+](=O)[O-])[nH]c(=O)[nH]c1=O,"inconclusive: 14.1 µM [inhibitor, partial curve]"
12,C=CCOc1ccc(C2C(C(=O)c3ccco3)=C(O)C(=O)N2c2nnc(C)s2)cc1 (centres undefined),"inconclusive: 11.2 µM [inhibitor, partial curve]"
13,CCC(=O)Nc1ccc(C(=O)CSc2nc3ccccc3[nH]2)cc1,"inconclusive: 12.6 µM [inhibitor, partial curve, poor fit]"
14,O=C(O)c1cc(N/N=C2/CC(c3ccccc3)Oc3ccccc32)ccc1Cl (centres undefined),"inconclusive: 31.6 µM [inhibitor, partial curve]"
15,COc1cc(CNCc2ccccn2)ccc1OCc1ccccc1Cl,inactive
16,COc1ccccc1C1C=C(c2ccc(Cl)cc2)Nc2nc(-c3ccc(Cl)cc3)nn21 (centres undefined),"inconclusive: 6.31 µM [inhibitor, partial curve]"
17,Cn1ncc2c(Nc3ccc(Br)cc3)nc(Nc3ccc(Br)cc3)nc21,"inconclusive: 44.7 µM [inhibitor, single point]"
18,CCCN(CCC)CC(O)Cn1cc(/C=C/C(=O)c2ccc(OCC)cc2)c2ccccc21 (centres undefined),active: 8.91 µM
19,C(=N/n1c2ccccc2c2ccccc21)/c1ccco1,"inconclusive: 12.6 µM [inhibitor, partial curve, poor fit]"
20,O=C(c1cccc(F)c1)N1CCN(C(=O)c2cc(-c3ccc(Cl)cc3Cl)on2)CC1,"inconclusive: 31.6 µM [inhibitor, single point]"
21,COc1ccc(NC(=O)Cc2csc(COc3cccc(C)c3)n2)c(OC)c1,"inconclusive: 8.91 µM [inhibitor, partial curve, poor fit]"
22,COc1ccc(Nc2nc(N)nc(CSc3nc4cc(OC)ccc4s3)n2)cc1,"inconclusive: 2.82 µM [inhibitor, partial curve]"
23,O=C(N/N=C/c1cc([N+](=O)[O-])ccc1O)c1cccc2cc[nH]c12,"inconclusive: 3.16 µM [inhibitor, full curve]"

row,SMILES,Potency
1,COc1ccc(C2CC(c3cccs3)=NN2c2ccccc2)cc1 (centres undefined),"inconclusive: 14.1 µM [inhibitor, partial curve, poor fit]"
2,NCCCC[C@H]1CNC(=S)N1CCCCC1CCCCC1,inactive
3,O=C(O)c1cnn(-c2nc(-c3cccc(F)c3)cs2)c1C(F)(F)F,inactive
4,CCCCn1nc(-c2ccccc2)c2nc3ccccc3nc21,"inconclusive: 39.8 µM [activator, partial curve]"
5,COc1ccc2c(c1OC)C(=O)OC2Nc1nc(-c2cccc([N+](=O)[O-])c2)cs1 (centres undefined),"inconclusive: 17.8 µM [inhibitor, partial curve]"
6,CCc1ccc(NC(=O)c2cc3c(=O)n(Cc4cccnc4)ccc3nc2C)cc1,inactive
7,CCc1ccc(NC(=O)C(=O)NCC(c2cccnc2)N2CCOCC2)cc1 (centres undefined),"inconclusive: 35.5 µM [inhibitor, single point]"
8,COc1cccc2c1NC(C(=O)O)C1CC=CC21 (centres undefined),active: 15.8 µM
9,Cc1ccc(C(=O)c2coc3c2C(=O)C(=O)c2ccccc2-3)cc1,active: 2.24 µM
10,N#CC1=C(S)N(c2ccccc2)C2(CCCCC2)NC1=O,"inconclusive: 28.2 µM [inhibitor, single point]"
11,COc1ccc(Cl)cc1NC(=O)c1c(NCc2ccc(C)o2)sc2c1CCCC2,"inconclusive: 28.2 µM [inhibitor, single point]"
12,O=[N+]([O-])c1ccc(Cl)c(/C=N/N2CCN(Cc3ccccc3)CC2)c1,"inconclusive: 25.1 µM [inhibitor, partial curve]"
13,CCC(=O)NC(=S)Nc1ccc(NC(=O)c2ccc(Br)o2)cc1,"inconclusive: 3.16 µM [inhibitor, full curve]"
14,COc1cccc(C(=O)NCC(=O)N/N=C/c2ccc(OC(=O)c3cccs3)c(OC)c2)c1,"inconclusive: 39.8 µM [inhibitor, single point]"
15,CC1CN(C(=O)Nc2ccc3c(c2)OCO3)CC(C)O1 (centres undefined),inactive
16,CCOC(=O)c1c(C)sc(-c2c(-c3ccc(OC)c(F)c3)[nH]c3c2c(=O)[nH]c(=O)n3C)c1O,"inconclusive: 10 µM [inhibitor, partial curve]"
17,Clc1ccc(C(c2ccccc2Cl)C(Cl)Cl)cc1 (centres undefined),"inconclusive: 5.01 µM [inhibitor, full curve]"
18,CC(C)Oc1ccc(CNC(=O)c2ccc3nc(Cc4ccccc4)oc3c2)cc1,inactive
19,O=C(Cc1ccc(Cl)cc1Cl)Nc1ccc(OC(F)F)c(Cl)c1,inactive
20,CCC(CC)C(=O)Nc1ccc2nc(SCC(=O)N3c4ccccc4CC3C)sc2c1 (centres undefined),inactive
21,O=C(O)CNC(=O)/C(=C\c1ccc2c(c1)OCO2)NC(=O)c1ccc(Br)cc1,"inconclusive: 14.1 µM [inhibitor, partial curve]"
22,CCOc1ccc(-c2nn3c(-c4ccccc4)nnc3s2)cc1,"inconclusive: 7.94 µM [inhibitor, partial curve]"
23,CS(=O)(=O)N(CC(=O)N1CCN(c2ccc(F)cc2)CC1)c1ccc(F)c(Cl)c1,"inconclusive: 39.8 µM [inhibitor, single point]"

# Reference: PubChem BioAssay AID1460 (National Center for Advancing Translational Sciences (NCATS), 2008)
